The other results are listed elsewhere or left out.
tested on: S. aureus RN4220; assay: growth inhibition call (relative growth <= 0.2); conditions: 50 µM

Growth inhibition call, inactive:
C[C@H](CO)N1C[C@H](C)[C@H](CN(C)S(=O)(=O)c2ccc(Cl)cc2)Oc2c(NC(=O)c3cnccn3)cccc2C1=O
C[C@@H]1CN([C@H](C)CO)C(=O)c2cccc(NC(=O)C3CC3)c2O[C@H]1CN(C)S(=O)(=O)c1ccc(Cl)cc1
C[C@H]1CN([C@@H](C)CO)C(=O)c2cccc(NS(C)(=O)=O)c2O[C@@H]1CN(C)Cc1ccc(C(=O)Nc2ccccc2N)cc1
COc1ccccc1-c1ccc2c(c1)O[C@@H](CN(C)C(=O)c1cccnc1)[C@@H](C)CN([C@H](C)CO)S2(=O)=O
Nc1c[n+](N2CCOCC2)no1
CN1CCN(C(=O)C[C@@H]2C=C[C@H](NS(=O)(=O)c3cccc(F)c3)[C@H](CO)O2)CC1
C[C@@H]1CN([C@@H](C)CO)C(=O)c2cccc(NC(=O)CCCCCC(=O)Nc3ccccc3N)c2O[C@H]1CN(C)C(=O)Nc1ccc(F)cc1
C[C@@H]1CN([C@H](C)CO)C(=O)c2cccc(NC(=O)Nc3ccc(C(F)(F)F)cc3)c2O[C@@H]1CN(C)Cc1ccncc1

— the antibiotic and cytotoxicity screens of Wong et al. (2023)
